Experimental findings from the supplement of paper PMC10126150 are described below.

The data set deals with ATP. The data set is described as follows: switch fluorescence ratio, 500 uM ATP over buffer (Cy3 cluster intensity, sum of 5 cycles each) (fold (ratio)); higher = stronger signal-on switching upon ATP binding; sequences stand for … in TCGTCGGCAGCGTCAGATGTGTATAAGAGACAGTTTTTTTTTTTTTTTTTTTTTTTTT…TC. The conditions noted are these: aptamer strand: ATP DNA aptamer (quencher-CACCTGGGGGAGTATTGCGGAGGAAGG + anchor), 100 nM annealed; ATP concentration: 500 uM; one replicate. In outline:
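Clusters carrying Cy3-labelled switching strands on a modified Illumina MiSeq flow-cell were annealed to 100 nM quencher-labelled ATP aptamer and imaged in selection buffer. They were imaged again after 15 min with 500 uM ATP at 22 °C, over five buffer/ATP cycles with NaOH stripping and re-annealing in between. For each cluster, the fluorescence ratio is the summed Cy3 intensity of the target cycles divided by that of the buffer cycles, averaged per switch-domain sequence. Clusters outside 100-1000 RFU were left out.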

Values marked as one replicate rest on one cluster of the flow cell; about a third of the high ones do not repeat.
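Also: ATP exposure 15 min at 22 °C before imaging.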

Consider ATTCACCGGC, for which the switch fluorescence ratio turned out to be 1.07.
The figure for TTTGTGACAA is 1.02.
On to TGGCTACTAG, for which the switch fluorescence ratio stood at 0.998.
On to TTCGATGGGC, for which the switch fluorescence ratio stood at 0.995.
On to TTAGTTTGG, for which the switch fluorescence ratio came out at 0.987.
Then GTTGTCTGGG, with 0.99.
For TCCGTGATAA, the switch fluorescence ratio amounted to 7.25.
In the case of CTGATCGCCT, the switch fluorescence ratio is 1.4.
AGAGCTACGA: the switch fluorescence ratio was 0.977.
On to GATCGGTCCA, for which the switch fluorescence ratio was 0.964.
Then GATTATCTTA, with 0.992.
Then TTTTCAGCGA, with 1.11; and TTGTCAATCA, with 1.02.
TATTTGGTTC: the switch fluorescence ratio was determined as 1.
The figure for AGGGATTCGA is 1.02; for GAATCTGTTG it is 0.981.
Take CGGCGGTCGT: the switch fluorescence ratio is 1.04.
Then CCAAGATGGA, with 0.987; and GTGCTAGGGA, with 0.991; and GGTTTCTAGC, with 0.965.
On to CTAATCATTA, for which the switch fluorescence ratio is 0.975.
Take TTCCGACACT: the switch fluorescence ratio was determined as 1.55.
As for GAAATAGCCG, the switch fluorescence ratio was 1.03.
Then AAAAGCCATT, with 1.03; and AATATTGTTG, with 0.944.
Take ACATAAATCG: the switch fluorescence ratio was determined as 0.993.
As for CGGAGTCGTT, the switch fluorescence ratio came out at 0.997.
Then GTCCTGATTG, with 1.01.
Consider CACATGGGAT, for which the switch fluorescence ratio turned out to be 1.01.
As for AGTGTTCTTG, the switch fluorescence ratio stood at 1.04.
Then ACTAAAGAAG, with 1.03.
Then GGCTATTTCC, with 1.51.
The figure for TAGCTGCAGA is 0.993; for CATGATTCAG it is 0.98.
For the sequence AGAATTGCTG, the switch fluorescence ratio amounted to 1.03.
With CAAAGGTTGT, the switch fluorescence ratio was 1.01.
As for CTGCGGCGAC, the switch fluorescence ratio worked out at 1.44.
Then GCGACCACGC, with 1.03; and TGCCCTCCGA, with 2.1; and TTCCGGAGTA, with 3.78.
The figure for CAACCTAGGT is 0.989; for CTAGGGCGGG it is 0.988; for TTCAACTGCT it is 1.02.
Then GAGTGCTCTC, with 0.996.
Regarding AATCACTATT, the switch fluorescence ratio is 1.02.
Consider GAAAAGGCTT, for which the switch fluorescence ratio is 1.02.
The figure for GTGTGGCCGG is 1.01.
Turning to GAATTGGTCA, the switch fluorescence ratio was found to be 0.986.
For the sequence ACTAATATT, the switch fluorescence ratio was found to be 1.03.
For CGGTGTCGTG, the switch fluorescence ratio came out at 1.
The figure for CTATCATTC is 1.01; for CGGGTTCGGG it is 1.02; for TTGTTAGGTA it is 0.986.
Then GTAGTTTCTA, with 0.968; and GGTAACCAGC, with 1.02.
As to CGATTGATCG, the switch fluorescence ratio is 1.01.
On to CGTGACAGGA, for which the switch fluorescence ratio is 0.973.
The figure for GGGTTCCGT is 0.956.
The figure for TATGTTTCCA is 1.13; for GTTGCAGGCG it is 0.991; for ACTAATAGGT it is 1.02.
On to AATTGCAGAA, for which the switch fluorescence ratio stood at 0.987.
Then AGGTCTACCT, with 1.03.
With GACTATGTGT, the switch fluorescence ratio was found to be 0.993.
The figure for CAGTGCTTG is 0.995.
Regarding TCTAGTTTCA, the switch fluorescence ratio was 0.977.
Then ACCGTCATGG, with 1.04.
The figure for AGTCCCGGAG is 1.03.
Then GGGAGACTCT, with 1.04; and GTGTAGATTT, with 0.975.
Take CTCAGCAATT: the switch fluorescence ratio worked out at 3.01.
On to ATCCGGTCTA, for which the switch fluorescence ratio was 1.04.
The figure for TAATATTCTC is 1.04; for AAAGGGACG it is 0.964.
Then GTCGGGGACA, with 0.961.
The figure for GTGGCGTGGG is 1.02; for CTTGCCTTTA it is 0.998.
For CACGTCGCGC, the switch fluorescence ratio is 1.08.
Turning to TTTCGATTGA, the switch fluorescence ratio is 0.977.
Then GGTAGTTGTT, with 0.988; and AGGTGGTGAT, with 0.989.
The figure for CTCAACGCGT is 1.04; for TTCGTGGTGG it is 1.03.
On to GAGGTTTCGA, for which the switch fluorescence ratio is 0.983.
ACGACACACT: the switch fluorescence ratio turned out to be 1.59.
The figure for ATATCTGATA is 1.02; for CTTCTTCGCA it is 3.8; for TCCGTATTCA it is 0.954.
Then GGAATATTTA, with 0.985; and AGTGGGCTGC, with 0.946; and GTGGACAAAC, with 1.05.
Take GTCGTTCTCA: the switch fluorescence ratio was 0.999.
Then TGTCATACAA, with 0.974; and GCCGGATTTC, with 1.01.
Turning to GATACTGTTT, the switch fluorescence ratio amounted to 0.966.
With GCCGTAGGTG, the switch fluorescence ratio turned out to be 1.07.
Take AAAGGCATCT: the switch fluorescence ratio was 1.03.
Then TCCAACGCTT, with 4.29.
TAATAACTGG: the switch fluorescence ratio was found to be 0.99.
The figure for AAGAACGTGG is 0.993.
Consider GCCTGTGCTC, for which the switch fluorescence ratio is 1.03.
On to AGGGTGTATG, for which the switch fluorescence ratio was 1.01.
Then TGTTGTCGAG, with 0.981.
Then ACCCGTAGAC, with 4.21.
As for AGTCGCGGGA, the switch fluorescence ratio is 1.02.
The figure for AGACGAAGGC is 0.997; for GCTCTGCCAA it is 1.79.
Then CACTATATGC, with 1.04; and TCGAGTGAAG, with 1.01; and GCACCAGACC, with 1.1.
The figure for GCTCATGTGG is 0.998; for TGTCCATGAC it is 1.02; for CCTAGGGGA it is 1.04.
As to GCTTGTGAGT, the switch fluorescence ratio stood at 0.993.
GAACCACGAA: the switch fluorescence ratio was 1.04.
The figure for TGCAAAATGG is 1.01; for ATATCATTTG it is 1.01.
Then AAAAAGCCAC, with 1.07; and AAGAGAGAGG, with 0.947; and GCTCCTCTT, with 1.03.
